# Results reported in the supplement of paper PMC11417369.
# ± gives the standard deviation of the averaged measurements. Some of the results follow.
# Test system: PfAP2-LT AP2 domain (GST-tagged)
# Test: gcPBM binding intensity (ln(normalized median fluorescence intensity)); higher = stronger DNA binding
# Method in brief: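 Binding intensity values are the highest Masliner-normalised natural-log median intensity among replicate spots of either probe orientation. The binding step lasted 1 h in 1× PBS with 1% milk, 0.2 mg/ml BSA, 0.5% salmon testes DNA and 0.03% Triton X-100, using GST-tagged P. falciparum DNA-binding domains expressed in E. coli on an Agilent 4 × 180k array of primer-extended double-stranded 36-bp intergenic genomic probes plus negative controls. Alexa488 anti-GST antibody and a 488 nm scan detected bound protein.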
row,Sequence,gcPBM binding intensity (ln)
1,TGTATATAGAAACATACACACATATTAATTTTACAT [CACACA_site3126],8.94 ± 0.44
2,TTTTTTATTAAAAGCGAAAAAAATGAAAACTTTTTT [GTGCAC_negctrl_site605],7.96 ± 0.45
3,GACCCAATGAAAAGGTCACACATTTTTTCTTTTCGA [CACACA_site5074],8.53 ± 0.52
4,AAAAATAAAAAGAATTGTACATATAAATCATATACA [XGTACX_site6860],8.64 ± 0.38
5,TAAAAATATATAAACAGTACATAAATTAAATAAATA [XGTACX_site6962],8.74 ± 0.45
6,TTTTTTCTTTAATACTCAATATGATAAAAGTAACAC [XGTACX_negctrl_site163],8.22 ± 0.39
7,AAAGTTTTTACCAAGTGTACATATATATATATATAT [XGTACX_site5786],9.6 ± 0.057
8,GTTAAAATTTGTCAATGTACAGAAATAATAAAAAAA [XGTACX_site1879],8.6 ± 0.54
9,GTTTATTTATTTTATGTGCACATATAACAAAAAAAA,8.55 ± 0.45
10,TATTTTTTTTAGCGTACATGCAAAAAAAAAAAAAAA [TGCATGCA_site555],8.22 ± 0.39
11,TATTAAATGAAACAAACACACATAGCCTTTAAATAT [CACACA_site1560],8.94 ± 0.36
12,ATTTTTTTTTTTATAGTGGAACCACATTTGCCATTT [CACACA_negctrl_site1247],8.77 ± 0.5
13,TTAGGACAAAAAAAAATAAAAATAAAATAAAATAAT [CACACA_negctrl_site1613],8.59 ± 0.53
14,ATAAAATAAAACAGAGCACACATTTTATTTACATTC [CACACA_site696],8.88 ± 0.42
15,AAATTATATATATTTACATGCAATATAATGAAATAA [TGCATGCA_site229],8.66 ± 0.49
16,ATATATATATCATATTGTACATATTATTGTATAATC [XGTACX_site5020],8.98 ± 0.42
17,TTGTTTTTAAGAAAAACACACACTCCTGTTATTTTA [CACACA_site9230],8.88 ± 0.43
18,ATTTTGTATATATTTTGTACATATTTTGTATATATT [XGTACX_site885],9.04 ± 0.42
19,AAATATTATACAAAAAAAAAAAAAAAAAAAATATAT [CACACA_negctrl_site52],8.62 ± 0.51
20,ATATAAACATGTTTGTGTACGTAATATGAAAAATAA [XGTACX_site8157],8.93 ± 0.44
21,GTATGTATAATATACACACTCACAAGCATTCAAATA [CACACA_site267],9.07 ± 0.37
22,TGTATGTTTATTTATCGTACATATATATATATATAT [XGTACX_site7315],9.2 ± 0.4
23,TTTTATATATTATATACACACATATATATATATATA [CACACA_site2999],9.06 ± 0.3

row,Sequence,gcPBM binding intensity (ln)
1,AATAAATAAATATATACACACATATATCTGTACATA [CACACA_site9034],9.43 ± 0.39
2,AGGAAAAAAAAAATGTGTACTTAAAAAAAAAAAATT [XGTACX_site1471],8.51 ± 0.65
3,CGTTTATATTTTAACTGTACTCAAAAAGTGCATTGT [XGTACX_site6072],8.65 ± 0.42
4,TTTTATCATATTTATTGTACACATAATATACATATC [XGTACX_site1145],8.99 ± 0.47
5,AAATTAGAATTAGGAACACACATATTTATATTTATA [CACACA_site7450],8.68 ± 0.49
6,TTTATTCTCCGACACACACACATATATTTATTTATA [CACACA_site7377],9.42 ± 0.33
7,ATATATAAAAAATGTGGTACATTCATTTATTATACA [XGTACX_site3495],8.76 ± 0.57
8,CATTTTATAAAAAGCACACATATAGTTATATGCACA [CACACA_site3691],8.85 ± 0.36
9,TAAATTATAATAAATACACACAAATTATAATTCTAT [CACACA_site3942],8.79 ± 0.37
10,TATATATATATACATTGTACATTATTGATTATAACA [XGTACX_site1678],9.06 ± 0.33
11,AATATTTTATATAAATGTACATTTATGAATAATATA [XGTACX_site8477],8.44 ± 0.44
12,GTGCTAAAAGTATATGCACACACATATATATGCACA [CACACA_site8472],9.42 ± 0.31
13,ACAAAGTAAAATAATGCATGTAGGTATACATAATTA [TGCATGCA_site607],8.98 ± 0.4
14,TGTTCATTTATTTACTTACACACTTTATATATGTGG [CACACA_site1410],9.23 ± 0.49
15,TAAAAGTAGATATATACACACATAAATATAGATGTA [CACACA_site6457],9.07 ± 0.41
16,ACATATTTCCAATAATGTACATACAAAATAAGAATG [XGTACX_site2659],8.79 ± 0.45
17,TTTTTTTCTTTTTTTTGTACTCATACATACTATCAT [XGTACX_site607],8.78 ± 0.58
18,GTAGTAATAAATCTAGTGCATTATATATAACAAAAA [GTGCAC_site9803],8.85 ± 0.54
19,AAAATATATCAAAATAGTACATAATTTTTTAAGAAT [XGTACX_site3515],8.64 ± 0.54
20,AAAAATGTGCACACGCGTACACACAAAAAAAGAAAA [XGTACX_site4097],9.42 ± 0.3
21,AGTTATGCATCTTAGGTGCTATGCCCAATTTATTTT [GTGCAC_site9977],8.85 ± 0.49
22,TTGCCTTAAAAAGGAACACACATGCTTTTTTTAGTT [CACACA_site938],8.77 ± 0.47
23,AAAAAAAAAAAAAATGCACACATATATTTCCATATA [CACACA_site8416],8.95 ± 0.29

row,Sequence,gcPBM binding intensity (ln)
1,AACTTACTCTTTACAAGTACGTAAAAGAAATAGAAA [XGTACX_site1782],8.49 ± 0.51
2,AATAAAGCAATAAATACACACATATATATATATATA [CACACA_site2934],9.955 ± 0.0071
3,TATATAAAAAATAGGTGGTCAACTTAAATATTTTAT [XGTACX_site4495],8.63 ± 0.42
4,TATTGCCCTTGACACACACACATATAAATAAATATA [CACACA_site7220],9.34 ± 0.44
5,TAAGGTTAAATAATATGTACATATTATTATATATAT [XGTACX_site6953],8.66 ± 0.39
6,TTATGGGACTCAAATACATGCAAAAATATTTTTAAG [TGCATGCA_site559],8.5 ± 0.51
7,AAATATGTATATATATATATATATATATATATATAT [GTGCAC_negctrl_site335],9.97 ± 0.29
8,TTAAACCGTGGGAGCACACACACACCCAGACACATA [CACACA_site4337],9.7 ± 0.31
9,GTATATATACATAAATGTACATATATATAAAAAATG [XGTACX_site3271],8.91 ± 0.41
10,AATATATAAGTCTACTGTACCCAAAATAAAATTTAT [XGTACX_site8727],8.7 ± 0.35
11,AAATAAGAACATAGAATGCACTTTTTTTTTTTTTCC,8.49 ± 0.5
12,AACATTATAAGACACACACACACATATATAAATATA [CACACA_site6622],10.2 ± 0.38
13,ATATATTTATATATTGCACACAAAAAAAAAAAAAAA [CACACA_site8468],8.76 ± 0.28
14,AAATATAATAAAATGACACACGCATATATATATATA [CACACA_site8900],9.775 ± 0.064
15,ATATATCCAAATAGATTACATATATATATATAGATA [TGCATGCA_negctrl_site277],8.73 ± 0.35
16,GGATATATGAAACATATTGAAAAACCGTTTAGTACA [CACACA_negctrl_site132],8.83 ± 0.51
17,GTAATTATATACATACGTACATACACATATGTATAT [XGTACX_site4149],9.03 ± 0.41
18,TTATATGAAAATTATTGTACAATCTATAAAAAAAAT [XGTACX_site4194],8.41 ± 0.42
19,TTACTATGTAAACACACATGCAATATATGTTAAGCC [TGCATGCA_site253],9.07 ± 0.4
20,TAATAATCAAACTATACACACATAAATAAATATATA [CACACA_site156],9.04 ± 0.4
21,AAGGAAATAAGAAAAAGTACACATAAGTATATAACA [XGTACX_site1173],9.04 ± 0.45
22,CACGTGTAAATAGTTTTACAATATCTCGATATGTAT [CACACA_negctrl_site785],8.83 ± 0.41
23,TGTCAAAATATGTATACACACAATTTTTTTTTTTTT [CACACA_site2465],8.8 ± 0.4

row,Sequence,gcPBM binding intensity (ln)
1,ATTCATTTACCAATGGTGCAATATATTTTTATAATG,8.63 ± 0.38
2,TATATTACTTATATTTGTACACAGAAATATAAATCA [XGTACX_site13],8.44 ± 0.35
3,TAATAAATAAAATAGAGTACAGGGATTTCATTAAAT [XGTACX_site8979],8.69 ± 0.52
4,TTTTTCATAAGAAGCACACAAAAAATGATAGAGAAT [CACACA_site1417],8.94 ± 0.37
5,TAATATGCATAAAATTGTACAAACTTACATATAATA [XGTACX_site2752],8.92 ± 0.45
6,TTTTCTTGACCTATTATTCTTCTCATAGTATAATAT [GTGCAC_negctrl_site641],8.78 ± 0.4
7,TTCATAGAATTATATATTTTAAAAAAAAAAATAATT [CACACA_negctrl_site175],8.12 ± 0.42
8,TTTTTTATAGGACATGCATGTTGTAGAGCTGTATAT [TGCATGCA_site704],8.8 ± 0.39
9,AATATATTTTAATATACACACATATATGCTCTTTAA [CACACA_site9371],8.88 ± 0.5
10,TTATTTTTTTTGTGTTGTACAATTTATTACTACTAA [XGTACX_site346],8.83 ± 0.47
11,AAACAAATATGTAGCACACATTCACATAATATATTT [CACACA_site2335],9.08 ± 0.44
12,TTATTTATGTGTAGGGCATGCAATCGTGTTTTTAAA [TGCATGCA_site735],8.82 ± 0.34
13,GTATTTATAATACGGCGTACATAAAAAAAAAAAAAA [XGTACX_site3705],8.54 ± 0.46
14,TGAAATACGAATTATTGTACTTATGTGTAAGATGGC [XGTACX_site4472],8.83 ± 0.45
15,AAAGAAAGTACCTTCACACATATAAGAATATAATAT [CACACA_site5214],8.85 ± 0.49
16,AAAAAAAAAATATATTGTACAAATAGATATGTCAAT [XGTACX_site122],8.92 ± 0.4
17,AAAAAAAAAAAAAAAAGTACACAGTAGAATTAAATG [XGTACX_site1843],8.73 ± 0.48
18,TTTTTTTTTTAATTAACACACATAAATATATATATA [CACACA_site3275],8.6 ± 0.38
19,ATAAGTAAATTAGATACACACATGATATCATACATA [CACACA_site1623],9.03 ± 0.45
20,GAACAATAAATAAAAAAAATAAAAATAAAAATAAAA [TGCATGCA_negctrl_site35],8.57 ± 0.75
